Experimental data from PubChem BioAssay AID686978 (National Center for Advancing Translational Sciences (NCATS), 2013).
About 64,000 (15%) of roughly 420,000 compounds were called active. Inconclusive results, whose numbers are uncertain, are shown with a selection of clear calls. Calls come from the whole dose curve; as a rule, active = well fitted inhibition curve with a large enough effect; inconclusive = small, poorly fitted or top-dose-only effect; inactive = flat fitted curve, though single readings scatter. No potency is given beside an inconclusive call; the fits are too rough.

Assay: qHTS for Inhibitors of human tyrosyl-DNA phosphodiesterase 1 (TDP1): qHTS in cells in absence of CPT; note: nearly all actives have a fitted effect of over 55% in size
Conditions: DT40 Tdp1-/- hTDP1 cells, no CPT, ATP luminescence, 48 h; activity change, negative = growth inhibition: at 46.2 µM (top of the series) unless noted
How it was run: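 Luminescent ATP content (CellTiter-Glo) served as the growth readout. Knockout chicken DT40 cells expressing human TDP1 were exposed to compounds without camptothecin for a minimum 48 hr at 37 °C.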
% is set by controls: 0 for no effect and ±100 for the full control effect; potency is the fitted concentration of half-maximal effect; tags give direction and shape of the fitted curve.

Question: With `COc1ccc2[nH]c(C)c(CCNCc3cc(OC)c4c(c3)OCO4)c2c1` as the molecule, how does the Potency read?
Answer: inconclusive [inhibitor, partial curve]

Question: For `CCC(=O)c1ccc(OCC(=O)N2CCN(CC(=O)Nc3ccc(C)cc3)CC2)cc1`, which activity change, negative = growth inhibition is on record?
Answer: inconclusive: -30.3% [inhibitor]

Question: With `Cc1nc(-c2nc(-c3c(C(=O)NNC(=O)c4ccc(Cl)cc4)noc3C)cs2)cs1` as the molecule, how does the Potency read?
Answer: inconclusive [inhibitor, single point]

Question: For `COc1ccccc1N1CCN(Cc2ccc(F)cc2)CC1`, which Potency is on record?
Answer: inactive

Question: Which Potency does the source give for `CCOc1ccc(NC(=O)c2cc3c(C)nn(-c4ccccc4)c3s2)cc1` here?
Answer: active: 10.3 µM

Question: For `CN1CCc2c(C#N)c(Cl)nc(Cl)c2C1`, which Potency is on record?
Answer: inconclusive [inhibitor, single point]

Question: With `Cc1cccc(N2CCN(C(=O)C34CC5CC(CC(C5)C3)C4)CC2)c1C` as the molecule, how does the Potency read?
Answer: inconclusive [inhibitor, single point]

Question: For `c1ccc(N2CCCC3(CCNCC3)C2)cc1`, which Potency is on record?
Answer: inconclusive [inhibitor, single point]

Question: Which Potency does the source give for `CCOC(=O)C1=C(C)OC(N)=C(C#N)C12C(=O)Nc1ccc(C)cc12` (stereo not drawn) here?
Answer: inconclusive [inhibitor, full curve]

Question: For `CC(=O)OC1=CC[C@H]2[C@@H]3CC[C@H]4C[C@H](OC(C)=O)[C@@H](OC(C)=O)C[C@]4(C)[C@H]3CC[C@]12C`, which Potency is on record?
Answer: active: 11.6 µM

Question: For `Cc1c(CCN)ccc2c1[nH]c1ccccc12`, which Potency is on record?
Answer: active: 29.1 µM

Question: With `CN(C)c1ccc(NC(=O)CSc2nc(-c3ccco3)cc(C(F)(F)F)n2)cc1` as the molecule, how does the Potency read?
Answer: inconclusive [inhibitor, partial curve]

Question: With `Cc1ccc2c(c1)CC1(CN2C)C(=O)NC(=O)N(C(C)C)C1=O` (stereo not drawn) as the molecule, how does the Potency read?
Answer: inconclusive [inhibitor, single point]

Question: With `CCOC(=O)C1=C(N)Oc2cc(C)oc(=O)c2C12C(=O)N1c3c(cc(OC)cc32)C(C)=CC1(C)C` (stereo not drawn) as the molecule, how does the Potency read?
Answer: inconclusive [inhibitor, single point]

Question: Which Potency does the source give for `S=P1(Oc2ccccc2)Nc2ccccc2N1` here?
Answer: inactive

Question: Which Potency does the source give for `CC(C)(C)C(=O)N1Cc2cc(-c3ccccc3)ccc2-n2nncc2C1` here?
Answer: inconclusive [inhibitor, single point]

Question: Which Potency does the source give for `O=c1c2ccccc2nc(-c2ccccc2)n1-c1nccs1` here?
Answer: inconclusive [inhibitor, single point]

Question: For `CCOC(=O)[C@@H]1[C@H]2COc3ccc(Br)cc3[C@H]2N2C(=O)N(c3cccc(C)c3)C(=O)[C@]12C`, which Potency is on record?
Answer: inconclusive [inhibitor, single point]

Question: For `COC(=O)C1=C(c2cccc(OC)c2OC)C[C@@H]2CC[C@H]1N2C(=O)NCc1ccc(C(F)(F)F)cc1`, which activity change, negative = growth inhibition is on record?
Answer: inconclusive: -32.5% [inhibitor]

Question: Which Potency does the source give for `COc1ccccc1NC(=O)c1cn(CCC#N)nc1-c1ccc(F)cc1` here?
Answer: inactive

Question: Which Potency does the source give for `CCC(=NCCN1CCOCC1)c1c(O)n(-c2ccccc2C)c(=O)[nH]c1=O` here?
Answer: inactive

Question: Which Potency does the source give for `O=C(OC1Cc2c(O)cc(O)cc2OC1c1cc(O)c(O)c(O)c1)c1cc(O)c(O)c(O)c1` (stereo not drawn) here?
Answer: inconclusive [inhibitor, single point]

Question: For `Cc1ccc(S(=O)(=O)N(C)C[C@H]2Oc3c(NC(=O)Nc4cccc5ccccc45)cccc3C(=O)N([C@@H](C)CO)C[C@@H]2C)cc1`, which Potency is on record?
Answer: inconclusive [inhibitor, single point]

Question: With `COc1ccc(CCNC2(C#N)CCCCC2)cc1OC` as the molecule, how does the Potency read?
Answer: inconclusive [inhibitor, single point]

Question: With `CCCCCCOc1ccc(CN2CCN(C)CC2)cc1` as the molecule, how does the Potency read?
Answer: active: 17.8 µM

Question: For `COC(=O)C1=C(c2ccc(OCc3ccccc3)cc2)C[C@@H]2CC[C@H]1N2C(=O)NCCc1ccc(F)cc1`, which Potency is on record?
Answer: inconclusive [inhibitor, single point]

Question: Which Potency does the source give for `CCCN(CCC)c1c([N+](=O)[O-])cc(S(N)(=O)=O)cc1[N+](=O)[O-]` here?
Answer: active: 30.6 µM

Question: With `CCCCn1c(O)c(C(C)=NCCc2ccccc2)c(=O)[nH]c1=O` as the molecule, how does the Potency read?
Answer: inconclusive [inhibitor, partial curve]

Question: With `CCOC(=O)N1CCN(C(=O)c2ccc3c(=O)n(CCC4=CCCCC4)c(=S)[nH]c3c2)CC1` as the molecule, how does the Potency read?
Answer: inconclusive [inhibitor, single point]

Question: For `O=C(c1cccnc1)c1cc2ccccc2[nH]1`, which Potency is on record?
Answer: inconclusive [inhibitor, single point]

Question: Which activity change, negative = growth inhibition does the source give for `Cc1ccc(Cn2cccc(C(=O)Nc3cc([N+](=O)[O-])ccc3C)c2=O)cc1` here?
Answer: inconclusive: -35.8% [inhibitor]

Question: With `COc1ccc(OCC(=O)N2CCN(C3CCC(c4ccccc4)CC3)CC2)cc1` (stereo not drawn) as the molecule, how does the Potency read?
Answer: active: 18.4 µM

Question: With `CNC(C)CC1CCCCC1` (stereo not drawn) as the molecule, how does the Potency read?
Answer: inactive

Question: For `CN1C(=O)C(=Cc2coc3ccccc3c2=O)C(=O)N(C)C1=O`, which Potency is on record?
Answer: active: 23.1 µM

Question: Which Potency does the source give for `COC(=O)C1=C(c2ccc(OC)c(OC)c2)C[C@@H]2CC[C@H]1N2C(=O)NCCOc1ccccc1` here?
Answer: inactive

Question: For `CC1CCN(C(=O)C2CCN(c3nnc(-n4cccc4)s3)CC2)CC1`, which Potency is on record?
Answer: inconclusive [inhibitor, single point]

Question: With `O=c1c(C=NCCN2CCNCC2)c(O)n(C2CCCCC2)c(=O)n1C1CCCCC1` as the molecule, how does the Potency read?
Answer: inconclusive [inhibitor, single point]

Question: For `Cc1ccc(C(=O)n2cc(CCN3CCS(=O)(=O)CC3)c3ccccc32)cc1`, which Potency is on record?
Answer: inconclusive [inhibitor, partial curve]

Question: For `O=S1(=O)N(Cc2ccccc2)CCCN1Cc1cccc(Cl)c1`, which activity change, negative = growth inhibition is on record?
Answer: inconclusive: -30.1% [inhibitor]

Question: For `Cc1cccn2c(=O)c3cc(C(=O)N4CCC5(CC4)OCCO5)n(C)c3nc12`, which Potency is on record?
Answer: active: 1.3 µM

Question: With `Cc1ccc(CC2C(=O)N(C)C(=O)N(C)C2=O)s1` as the molecule, how does the activity change, negative = growth inhibition read?
Answer: inconclusive: -34.8% [inhibitor]

Question: Which Potency does the source give for `COC(=O)C1=C(c2ccc(F)cc2F)C[C@@H]2CC[C@H]1N2C(=O)NCc1ccco1` here?
Answer: inconclusive [inhibitor, single point]

Question: For `COc1ccc(NC(=O)Cn2c(=O)c3cccn3c3ccccc32)cc1Cl`, which Potency is on record?
Answer: inconclusive [inhibitor, full curve, poor fit]
